Consider 1 molecule from patent publication US20250057951A1 (UNIVERSIT T BASEL, published 2025).

Assay in all cases: cell-based or functional assay
For one assay, the target named is human wild-type CD117 (human, UniProt P10721 26-976).
Assay [1] addresses human CD117 variant E73K on cells (human, UniProt P10721 26-976).
The target in assay [2] is human CD117 variant E73Y on cells (human, UniProt P10721 26-976).
Assay [3] has as its target human CD117 variant D121K on cells (human, UniProt P10721 26-976).
Assay [4] deals with human CD117 variant S123K on cells (human, UniProt P10721 26-976).
Assay [5] addresses human CD117 variant S123F on cells (human, UniProt P10721 26-976).

B1: recombinant human SCF (ligand)
chain: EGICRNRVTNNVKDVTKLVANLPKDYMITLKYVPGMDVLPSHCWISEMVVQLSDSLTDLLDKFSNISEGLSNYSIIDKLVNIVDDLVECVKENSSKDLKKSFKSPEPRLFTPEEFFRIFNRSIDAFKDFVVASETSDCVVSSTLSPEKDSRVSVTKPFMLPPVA
For B1, the “EC50 [ng/ml] of SCF, SCF-dependent proliferation of TF-1 cells (CellTiter-Glo), Average” value amounted to 4.18 ng/mL in the assay with human wild-type CD117; 3.58 ng/mL in assay [1]; 4.01 ng/mL in assay [2]; 3.7 ng/mL in assay [3]; 3.54 ng/mL in assay [4]; 3.82 ng/mL in assay [5]. Besides, the “EC50 [ng/ml] of SCF, SCF-dependent proliferation of TF-1 cells (CellTiter-Glo), Experiment #1” value with human wild-type CD117 came to 4.14 ng/mL; in assay [1], 3.73 ng/mL; in assay [2] it was 4.37 ng/mL; in assay [3], 4.15 ng/mL; in assay [4], 3.76 ng/mL; in assay [5], 4.01 ng/mL. The “EC50 [ng/ml] of SCF, SCF-dependent proliferation of TF-1 cells (CellTiter-Glo), Experiment #2” value in the assay with human wild-type CD117 came out at 4.22 ng/mL; in assay [1], 3.42 ng/mL; in assay [2], 3.64 ng/mL; in assay [3] it was 3.25 ng/mL; in assay [4], 3.31 ng/mL; in assay [5], 3.63 ng/mL.
